What was measured:
[1] = system: Botrytis cinerea; assay: Test Example B: Gray mold on tomato; format: in vivo; details: Gray mold on tomato; control value=100{1-(n/3)}
[2] = system: Plasmopara viticola; assay: Test Example G: Downy mildew on vine; format: in vivo; details: Downy mildew on vine; 250 ppm spray, 2.5 ml/pot; evaluated 7-10 days after inoculation
[3] = system: Puccinia recondita; assay: Test Example E: Brown rust on wheat; format: in vivo; details: Brown rust on wheat; control value=100{1-(n/3)}
[4] = system: Colletotrichum orbiculare; details: in vivo
[5] = system: Alternaia brassicicola; assay: Test Example C: Alternaria sooty spot on cabbage; format: in vivo; details: Alternaria sooty spot on cabbage; control value=100{1-(n/3)}
[6] = system: Blumeria graminis f sp. hordei; assay: Test Example D: Powdery mildew on barley; format: in vivo; details: Powdery mildew on barley; control value=100{1-(n/3)}

## COc1cc(F)c(-c2c(-c3cc(F)cc(F)c3Br)cc(Br)c(=O)n2C)c(F)c1 [Compound 825]
[1]
  Test B (control value class): H (H shows more than 50% of control values)
[2]
  Test G (control value class): H (H shows more than 50% of control values)
[3]
  Test E (control value class): H (H shows more than 50% of control values)
[4]
  Test H (control value class): H (key: H shows more than 50% of control values; L shows 50% or less of control values)
[5]
  Test C (control value class): H (H shows more than 50% of control values)
[6]
  Test D (control value class): H (H shows more than 50% of control values)
